Test results taken from PubChem BioAssay AID1347120 (National Center for Advancing Translational Sciences (NCATS), 2019).
In all, about 390,000 compounds went through this assay and about 930 (0.24%) were called active. This list was built around the results that the source calls inconclusive (neither active nor inactive); the mix of calls is not that of the screen. The call rests on the fitted dose curve; in most records, active means well fitted activation curve with a large enough effect; inconclusive means small, poorly fitted or top-dose-only effect; inactive means no such curve, though single readings can be large or run the other way. Where the call is inconclusive, the potency comes from a doubtful curve fit.

test: qHTS for Suppressors of FUS Proteinopathy: Primary screen using FUS-linked yeast assay; further: nearly all actives have a fitted effect of over 55% in size;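 on growth rescue (activation): plate controls were DMSO vehicle for no effect and reference control for full effect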; conditions: S. cerevisiae FUS-expressing, OD600, 24 h; Potency: growth rescue; growth rescue (activation): at 76.6 µM (top of the series)
In short: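 Yeast FUS proteinopathy model; galactose-induced FUS (2%), starting OD 0.005. Cpds in dilution series, 24hr, 30C, 99% humidity. Abs 600 nm growth. Pos ctrl CP55940 (top 92uM final); neg ctrl DMSO.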
Potency means the concentration at half of the fitted maximal effect; tags describe the fitted curve by direction and shape.

SMILES | Potency | growth rescue (activation)
CCc1ccc([C@@H]2CC(=O)[C@@H]3CN(S(=O)(=O)c4ccccc4C)[C@H](c4ccc(Cl)cc4)C[C@@H]3N2S(=O)(=O)c2ccc(C)cc2)cc1 | inactive | –
CC(C)c1ccc(N2C(=O)CC(Sc3nc4ccccc4o3)C2=O)cc1 (stereo not drawn) | inconclusive: 31.6 µM [activator, partial curve, poor fit] | –
COc1ccccc1N1CCN(C(=O)c2ccc3c(Cl)c4c(nc3c2)CCCC4)CC1 | inconclusive: 25.1 µM [activator, partial curve, poor fit] | –
CCCCc1cc(=O)oc2cc(C)c(CN3CCCC3)c(O)c12 | inconclusive: 1.58 µM [activator, partial curve, poor fit] | –
CCCCCCCCCCS(=O)(=O)N/N=C/c1ccc(O)cc1 | inactive | –
COc1ccccc1Oc1nc(-c2cccnc2)nc2ccccc12 | inconclusive: 39.8 µM [activator, single point] | –
Fc1cc(Br)ccc1Nc1c2c(nc3nc(-c4cccs4)nn13)CCCC2 | inactive | –
CCc1cccc(C)c1NC(=O)CN(C)Cc1ccc(Br)cc1 | inconclusive: 5.01 µM [activator, full curve] | –
Cc1cccc(Oc2nc3c(c(=O)n(C)c(=O)n3C)n2C)c1 | inactive | –
COc1ccc2cc(C(=O)NCc3ccco3)c(=O)oc2c1 | inactive | –
COc1ccc2[nH]c(=O)c(CNc3ccc(C)c(C)c3)cc2c1 | inconclusive: 35.5 µM [activator, partial curve, poor fit] | –
CCC(C)(C)n1nnnc1C(c1cc2ccc(OC)cc2[nH]c1=O)N1CCCCC1 (stereo not drawn) | inactive | –
Cc1cccc(NC(=S)NCCc2ccccc2)c1C | inactive | –
COc1ccc(N2CCN(C(=O)c3cc4ccc5cccnc5c4[nH]3)CC2)cc1 | inactive | –
CCCNC(=O)CS(=O)(=O)c1ccccc1 | inactive | –
COc1ccc(OC)c(-n2cnc3cc(C(=O)NC4CCCCCC4)ccc32)c1 | inconclusive: 22.4 µM [activator, partial curve] | –
O=C(Nc1ccc(F)cc1F)c1ccc(COc2c(F)c(F)cc(F)c2F)o1 | inconclusive: 1.78 µM [activator, full curve, poor fit] | –
O=C1Nc2ccccc2NC(c2ccc3c(c2)OCO3)=C1N(Cc1ccc(F)cc1)C(=O)c1ccco1 | inconclusive: 50.1 µM [activator, single point] | –
CCOC(=O)[C@]12CCC=C1N(CCC1=CCCCC1)C(=O)[C@H](CC(=O)NCc1cccc3ccccc13)C2 | inconclusive: 11.2 µM [activator, partial curve, poor fit] | –
Cc1ccccc1CCNC(=O)c1ccc2c(c1)c(C)c(C)n2Cc1ccccc1 | inconclusive: 28.2 µM [activator, single point] | –
COc1ccc(N2CCN(Cc3nc(-c4ccc(Cl)cc4Cl)no3)CC2)cc1 | inconclusive: 50.1 µM [activator, single point] | –

SMILES | Potency | growth rescue (activation)
COCCCn1c(C(=O)N2CC(C)OC(C)C2)cc2c(=O)n3cccc(C)c3nc21 (stereo not drawn) | inactive | –
COc1ccc(OCC(=O)Nc2cc(OC)cc(OC)c2)cc1 | inactive | –
C=C[C@@H]1c2c(F)cccc2N(S(=O)(=O)c2ccc(C)cc2)[C@H](c2ccc(OC(C)=O)cc2)C1(C#N)C#N | inconclusive: 31.6 µM [activator, single point] | –
COC(=O)Nc1ccc(S(=O)(=O)N2CCCCC2C(=O)NCc2ccco2)cc1 (stereo not drawn) | – | inconclusive: 11% [activator]
CCCCC(=O)N(CCOC)c1nnc(-c2ccccc2C)s1 | inconclusive: 22.4 µM [activator, partial curve, poor fit] | –
Cc1cccc(N2CCN(C(=O)c3c(C)oc4ncnc(N5CCCCC5)c34)CC2)c1C | inactive | –
CCCCCCCCN1C(=O)[C@H](CC(=O)N2CCCC2)C[C@@]2(C(=O)OC)CC(C)(C)CC=C12 | inconclusive: 22.4 µM [activator, single point] | –
COc1ccccc1CNC(=O)CN1C(=O)CSc2ccc(S(=O)(=O)N3CCCCC3)cc21 | inactive | –
COC(=O)c1c(Oc2ccc(C(C)=O)cc2)nnc(-c2ccccc2)c1-c1ccccc1 | inconclusive: 50.1 µM [activator, single point] | –
CCc1cccc(NC(=O)CSCc2cc(=O)[nH][nH]2)c1 | inconclusive: 14.1 µM [activator, partial curve] | –
COc1cc(CN2CCNC(=O)C2CC(=O)NCCCC2CCCC2)cc(OC)c1 (stereo not drawn) | inconclusive: 25.1 µM [activator, single point] | –
Cc1ccc(CSc2nnc(-c3cccnc3)o2)cc1 | inactive | –
CCOC(=O)c1c(C)[nH]c(N=Nc2cc(C(=O)O)cc(C(=O)O)c2)c1C | inconclusive: 44.7 µM [activator, partial curve, poor fit] | –
COc1ccc(OC)c(/C=N\NC(=O)c2cc3c(ccc4ccccc43)o2)c1 | inactive | –
OC(c1cccc(Cl)c1)c1nc(-c2cccc3cccnc23)cs1 (stereo not drawn) | inactive | –
COc1ccc(N2CCN(C(=O)c3ccc(NS(=O)(=O)c4cccc(F)c4)cc3)CC2)cc1 | inconclusive: 35.5 µM [activator, single point] | –
CN(C(=O)c1ccc(NC(=O)Cc2cccc(NC(=O)C3CCCN(C(=O)CCc4ccccc4)C3)c2)cc1)C1CCCC1 (stereo not drawn) | inconclusive: 25.1 µM [activator, partial curve, poor fit] | –
Cc1ccc(NS(=O)(=O)c2ccc3nc(-c4ccccc4)[nH]c3c2)c(Cl)c1 | inactive | –
Cc1ccc(CCc2nnc(SCC(=O)Nc3ccccc3Cl)n2-c2ccccc2)o1 | inconclusive: 22.4 µM [activator, single point] | –
CC(C)(C)OC(=O)C[C@@H]1C/C=C\C[C@H](CC(=O)N(CCO)Cc2ccccc2)C(=O)N[C@@H](Cc2c[nH]c3ccccc23)COC1=O | inconclusive: 28.2 µM [activator, partial curve] | –
CCc1cc2cc(C)ccc2nc1SCC(=O)N1CCN(C(=O)c2ccco2)CC1 | inconclusive: 15.8 µM [activator, partial curve] | –

SMILES | Potency | growth rescue (activation)
CCn1c(CNC(=O)C23CC4CC(CC(C4)C2)C3)nnc1SCC(=O)Nc1ccccc1 | inconclusive: 10 µM [activator, partial curve] | –
C[C@@H]1CN(S(=O)(=O)c2c(F)cccc2F)CCN1S(=O)(=O)c1ccc2c(c1)OCCO2 | inconclusive: 31.6 µM [activator, single point] | –
Oc1ccc(C[C@H]2CNC(=S)N2CC2CCCN2C[C@H](Cc2ccccc2)N2C[C@H](Cc3ccc(O)cc3)N(CCc3ccccc3)C2=S)cc1 (stereo partly drawn) | inconclusive: 28.2 µM [activator, single point] | –
Cc1ccc2nc3n(c(=O)c2c1)-c1ncccc1C(=O)NC3Cc1ccccc1 (stereo not drawn) | inconclusive: 50.1 µM [activator, single point] | –
COC(=O)[C@]12CCCCC=C1N(Cc1cccc3ccccc13)C(=O)[C@H](CC(=O)NCc1ccccc1)C2 | inconclusive: 35.5 µM [activator, single point] | –
CC(C)NC(=O)c1cc(C2CCCCN2C(=O)OCCF)on1 (stereo not drawn) | inactive | –
CCCS(=O)(=O)Nc1ccc(-c2cn3c(n2)SCC3)cc1 | inconclusive: 17.8 µM [activator, partial curve, poor fit] | –
CC1CCN(S(=O)(=O)c2nnc(NC(=O)c3cccc([N+](=O)[O-])c3)s2)CC1 | inactive | –
COc1ccc(-c2nc(-c3ccccc3)c(-c3cc([N+](=O)[O-])ccc3C)[nH]2)cc1O | inactive | –
COc1ccccc1CNC(=O)c1ccc2c(c1)N(Cc1cccc(Cl)c1)C(=O)c1ccccc1S2(=O)=O | inconclusive: 11.2 µM [activator, partial curve] | –
Cc1c(NC(=O)c2ccc(Cl)nc2)cccc1-c1nc2cccnc2s1 | inconclusive: 12.6 µM [activator, partial curve] | –
CCS(=O)(=O)Nc1cccc(C2=NN(S(=O)(=O)CC)C(c3ccccc3)C2)c1 (stereo not drawn) | inconclusive: 22.4 µM [activator, partial curve, poor fit] | –
CC(C)(C)C(=O)NCCc1nc2ccccc2n1CCCCOc1ccc(Cl)cc1 | inactive | –
CCOC(=O)[C@]12CCCC=C1N(Cc1ccccc1)C(=O)[C@H](CC(=O)NCC1CCCCC1)C2 | inconclusive: 17.8 µM [activator, partial curve, poor fit] | –
O=C1C(NS(=O)(=O)c2ccccc2)=C(N2CCN(c3ccc(F)cc3)CC2)C(=O)c2ccccc21 | inactive | –
O=C1NC(c2cccc(Br)c2)=N/C1=C\c1ccco1 | inconclusive: 22.4 µM [activator, partial curve, poor fit] | –
COc1ccc([C@H]2Oc3cc(O)cc(O)c3C(=O)C2[C@@H]2C(=O)c3c(O)cc(O)cc3O[C@@H]2c2ccc(OC)cc2)cc1 (stereo partly drawn) | inconclusive: 35.5 µM [activator, single point] | –
CCOc1cc(/C=C(\C#N)C(=O)Nc2cccc(C(=O)O)c2)ccc1OCc1ccccc1Cl | inconclusive: 15.8 µM [activator, partial curve, poor fit] | –
COC(=O)[C@]12CCCCC=C1N(CCc1ccc(OC)c(OC)c1)C(=O)[C@H](CC(=O)NCc1ccccc1)C2 | inconclusive: 12.6 µM [activator, partial curve] | –
COc1cccc(Cn2c(=O)n(Cc3ccco3)c(=O)c3oc4ccccc4c32)c1 | inactive | –
COc1ccc(Cl)cc1NC(=O)CN1C(=O)COc2ccc(S(=O)(=O)NC3CCCC3)cc21 | inconclusive: 35.5 µM [activator, single point] | –
